# In PubChem BioAssay AID504332 (National Center for Advancing Translational Sciences (NCATS), 2011):
# Where “and” joins values, the source holds several entries; their conditions need not be identical. Equal values may be shown once. Out of some 350,000 compounds screened, about 31,000 (8.9%) were called active. The shares of active, inactive and inconclusive entries below differ from those in the screen. The call rests on the fitted dose curve; in most records, active means well fitted inhibition curve with a large enough effect; inconclusive means small, poorly fitted or top-dose-only effect; inactive means no such curve, though single readings can be large or run the other way. A potency beside an inconclusive call is a rough fit, not a confirmed value. Some structures have more than one record in an assay (separate samples or runs), and their calls can disagree.
# Target: Histone-lysine N-methyltransferase EHMT2 (Homo sapiens) (UniProt Q96KQ7)
# Assay: qHTS Assay for Inhibitors of Histone Lysine Methyltransferase G9a; further: nearly all actives have a fitted effect of over 75% in size
# Details: G9a H3K9 monomethylation, AlphaScreen, 2 h; activity, negative = inhibition: at 59 µM (top of the series) unless noted
# Summary of the method: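 Quantitative HTS format: methyltransferase activity on a biotin-tagged H3K9 peptide is measured by AlphaScreen, using a rabbit anti-monomethyl-H3K9 antibody with streptavidin donor and anti-IgG acceptor beads. Final levels are 20 nM enzyme, 500 nM peptide, 20 uM SAM; 2 h RT.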
# On the % scale 0 is the no-effect control and ±100 the full control effect; potency means the concentration at half of the fitted maximal effect; tags describe the fitted curve by direction and shape.
# UniProt Q96KQ7, sequence (Q96KQ7 whole entry, looked up): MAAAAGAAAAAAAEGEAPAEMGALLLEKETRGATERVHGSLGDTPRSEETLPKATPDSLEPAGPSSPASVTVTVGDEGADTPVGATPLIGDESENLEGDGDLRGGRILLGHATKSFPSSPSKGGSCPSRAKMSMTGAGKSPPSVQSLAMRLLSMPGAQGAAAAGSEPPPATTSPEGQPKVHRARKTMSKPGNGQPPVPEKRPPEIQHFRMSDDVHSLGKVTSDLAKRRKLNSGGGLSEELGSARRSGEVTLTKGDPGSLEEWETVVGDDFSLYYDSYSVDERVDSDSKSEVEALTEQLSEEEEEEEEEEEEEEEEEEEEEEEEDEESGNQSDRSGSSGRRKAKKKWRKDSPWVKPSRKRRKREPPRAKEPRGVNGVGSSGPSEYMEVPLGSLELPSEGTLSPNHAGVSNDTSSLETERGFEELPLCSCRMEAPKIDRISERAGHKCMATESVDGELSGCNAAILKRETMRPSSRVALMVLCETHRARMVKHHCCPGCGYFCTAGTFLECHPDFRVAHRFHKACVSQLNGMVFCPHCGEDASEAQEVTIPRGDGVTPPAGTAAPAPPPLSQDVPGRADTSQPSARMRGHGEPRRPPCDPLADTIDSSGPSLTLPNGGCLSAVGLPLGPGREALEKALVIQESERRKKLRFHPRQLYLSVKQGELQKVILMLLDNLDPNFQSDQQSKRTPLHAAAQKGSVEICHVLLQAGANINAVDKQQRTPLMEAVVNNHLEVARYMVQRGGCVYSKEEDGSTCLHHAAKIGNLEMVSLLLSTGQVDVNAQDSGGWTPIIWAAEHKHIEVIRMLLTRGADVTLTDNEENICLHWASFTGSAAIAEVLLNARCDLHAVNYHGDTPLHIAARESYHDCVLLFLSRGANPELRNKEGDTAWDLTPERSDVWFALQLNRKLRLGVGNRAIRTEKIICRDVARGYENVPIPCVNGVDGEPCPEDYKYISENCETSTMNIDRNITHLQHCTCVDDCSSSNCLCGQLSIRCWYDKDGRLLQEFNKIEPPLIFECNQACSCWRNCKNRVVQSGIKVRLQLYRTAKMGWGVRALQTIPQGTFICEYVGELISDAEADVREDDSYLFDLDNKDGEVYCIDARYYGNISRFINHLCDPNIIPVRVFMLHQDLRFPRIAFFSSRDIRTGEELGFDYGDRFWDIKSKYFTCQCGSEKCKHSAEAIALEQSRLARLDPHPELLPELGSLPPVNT
SMILES,Potency,"activity, negative = inhibition"
O=C(/C=C/c1ccccc1Cl)Nc1cccc(O)c1,"inconclusive: 79.4 µM [inhibitor, single point]",–
CN(C)c1cc[n+](CC(=O)Nc2ccc([N+](=O)[O-])cc2Cl)cc1,"inconclusive: 89.1 µM [inhibitor, single point]",–
CC[n+]1c(/C=C(\C)OC)sc2ccccc21,"inconclusive: 50.1 µM [inhibitor, partial curve]",–
CCN1CCc2c(sc(-n3cccc3)c2C(C)NC(=O)Nc2cc(Cl)c(OC)cc2OC)C1 (configuration not stated),"inconclusive: 12.6 µM [inhibitor, partial curve, poor fit]",–
CCOC(=O)CN1Cc2cccc(C(=O)O)c2C1=O,"inconclusive: 89.1 µM [inhibitor, single point]",–
CC1=C(/C=C/C(C)=C/C=C/C(C)=C/C(=O)Nc2ccc(O)cc2)C(C)(C)CCC1,inactive and active: 12.6 µM,–
Nc1[nH]n2c(=O)c3c(nc2c1N=Nc1ccc(Cl)cc1)CCCC3,–,inactive: -0.0686% [at 12.7 µM]
CCn1c2ccc(C)cc2c2nnc(SCCN3CCOCC3)nc21,active: 44.7 µM,–
CCCCSc1n[nH]c(N)n1,"inconclusive: 0.631 µM [inhibitor, partial curve, poor fit]",–
O=C(Nc1cccc(-n2cccn2)c1)C1CCCN(Cc2ccc(C#CCCO)cc2)C1 (configuration not stated),"inconclusive: 89.1 µM [inhibitor, single point]",–
Cc1ccc(O)c(NC(=S)NC(=O)CC(C)C)c1,"inconclusive: 17.8 µM [inhibitor, partial curve, poor fit]",–
OC(COc1ccc(CN2CCSCC2)cc1)CN1CCCCC1 (configuration not stated),"inconclusive: 50.1 µM [inhibitor, partial curve, poor fit]",–
CSc1ccccc1C(=O)OCC(=O)NC1CCS(=O)(=O)C1 (configuration not stated),"inconclusive: 7.94 µM [inhibitor, partial curve]",–
COc1ccccc1NC(=O)CCSCCC(=O)Nc1ccccc1OC,"inconclusive: 7.94 µM [inhibitor, full curve]",–
CCn1c(C(=O)N2CCC(C(=O)N3CCN(c4ccc(OC)cc4)CC3)CC2)cc2sccc21,"inconclusive: 20 µM [inhibitor, single point]",–
COc1ccc(Cl)cc1N=C1NC(=O)CC(C(=O)Nc2ccccc2C(F)(F)F)S1 (configuration not stated),"inconclusive: 22.4 µM [inhibitor, partial curve, poor fit]",–
N#CCCn1cc(C(CC(=O)c2ccccc2)C(=O)O)c2ccccc21 (configuration not stated),"inconclusive: 25.1 µM [inhibitor, partial curve, poor fit]",–
O=C(Nc1ccc(C(=O)O)cc1)Nc1ccc([N+](=O)[O-])cc1,inactive,–
O=C(NCCCN1CCOCC1)c1cc(-c2ccc(Br)cc2)on1,"inconclusive: 89.1 µM [inhibitor, partial curve, poor fit]",–
Nc1cc(-c2ccc(OC(F)(F)F)cc2)nn1-c1ccc(Cl)c(Cl)c1,"inconclusive: 35.5 µM [inhibitor, partial curve]",–
O=C(c1cccn1-c1nnc(N2CCCCC2)s1)N1CCN(c2ccc(Cl)cc2)CC1,inactive,–
c1ccc2cc(-c3cc4ccccn4c3)ccc2c1,active: 35.5 µM,–
O=C(C1=NN[C@@H]2C(=O)N(Cc3ccccc3)C(=O)[C@H]12)c1ccc([N+](=O)[O-])cc1,inactive,–
COc1cccc(COC(=O)C2CC(=O)N(Cc3ccc(C)cc3)C2)c1OC (configuration not stated),inactive,–

SMILES,Potency,"activity, negative = inhibition"
CCCN(CC(=O)Nc1ccccc1OC)C(=O)c1cc(-c2cccs2)nn1-c1ccccc1,active: 44.7 µM,–
COc1ccc(-c2nc3scc(CCNS(=O)(=O)c4c(C)cc(C)cc4C)n3n2)cc1OC,inactive,–
Cn1nnnc1Sc1ccc([N+](=O)[O-])cc1Cl,inactive,–
CCCC(NCC(O)COc1ccc(-c2ccccc2)cc1)c1ccccc1 (configuration not stated),"inconclusive: 2.51 µM [inhibitor, full curve]",–
CCCN(CC1CC1)C(=O)CSc1ncnc2sccc12,active: 39.8 µM,–
CN1C(=O)c2ccccc2N(C)C1c1cccs1 (configuration not stated),"inconclusive: 0.316 µM [inhibitor, partial curve, poor fit]",–
O=c1c(N2CCOCC2)nsnc1N1CCOCC1,"inconclusive: 1.78 µM [inhibitor, partial curve, poor fit]",–
CSc1ccc(/C=N/N2CCN(Cc3ccc(C)cc3C)CC2)cc1,–,inconclusive: -90.9% [inhibitor]
COc1ccc(-c2cn(Cc3ccc(C(=O)c4ccccc4)cc3)nn2)cc1,"inconclusive: 89.1 µM [inhibitor, single point]",–
Cc1cccc(OCC(=O)NN2C(=O)C3C4C=CC(O4)C3C2=O)c1 (configuration not stated),active: 8.91 µM,–
COc1ccc2c(c1)c(CC(=O)Nc1cc(C)ccc1C)c(C)n2C(=O)c1ccc(Cl)cc1,"inconclusive: 12.6 µM [inhibitor, partial curve]",–
O=C(Nc1ccc(Cl)cc1C(=O)O)c1ccc2c(c1)C(=O)N(Cc1ccco1)C2=O,active: 11.2 µM,–
CCCOC(=O)c1ccc(Oc2c(-c3ccc(OCC)cc3O)n[nH]c2C)cc1,"inconclusive: 0.708 µM [inhibitor, full curve, poor fit]",–
COc1ccc(C2=NS(=O)(=O)N(C)C(C(=O)Nc3ccc(OC(F)(F)F)cc3)=C2)cc1,active: 14.1 µM,–
CC(Sc1nc2ccccc2s1)C(=O)NCc1ccc2c(c1)OCO2 (configuration not stated),"inconclusive: 89.1 µM [inhibitor, single point]",–
Cc1ccc(/C=C/C(=O)OC(C)C(=O)Nc2ncc(Cl)cc2Cl)o1 (configuration not stated),"inconclusive: 17.8 µM [inhibitor, single point]",–
O=C(OCc1nnc(-c2ccccc2)o1)c1cc(Cl)ccc1[N+](=O)[O-],"inconclusive: 44.7 µM [inhibitor, partial curve, poor fit]",–
Cc1cc(N2CCOCC2)ccc1/C=C1\NC(=O)N(CC(=O)Nc2ccc(F)cc2)C1=O,"inconclusive: 1.41 µM [inhibitor, full curve]",–
Cc1ccc(S(=O)(=O)N/N=C/c2ccc(C#N)cc2)cc1,active: 2.24 µM,–
CSCc1ccc(C(=O)N2CCCC(Nc3ccc(F)cc3)C2)o1 (configuration not stated),"inconclusive: 11.2 µM [inhibitor, full curve]",–
O=C(CSc1nc2ccc(Cl)cc2[nH]1)NCCc1ccccc1,active: 79.4 µM,–
O=S(=O)(c1ccccc1)c1nc(-c2ccco2)oc1NCCCn1ccnc1,"inconclusive: 3.55 µM [inhibitor, single point]",–
O=C(COC(=O)c1ccccc1-n1cnnn1)c1ccc(F)c(F)c1,–,inconclusive: -66% [inhibitor] [at 2.33 µM]
NC(=O)c1ccc(-c2nc(-c3ccc4c(c3)OCO4)c(-c3ccccn3)[nH]2)cc1,inactive,–

SMILES,Potency,"activity, negative = inhibition"
C=CCN1C(=O)[C@@H]2Cc3c([nH]c4ccccc34)C(c3ccc(O)cc3)N2C1=S (some centres not stated),active: 44.7 µM,–
COC(=O)Cn1c(=O)c2c(nc3n2CC(C)CN3CCc2ccccc2)n(C)c1=O (configuration not stated),"inconclusive: 89.1 µM [inhibitor, single point]",–
C=CCOc1c(Br)cc(CNn2cn[nH]c2=S)cc1OC,inactive,–
CC(C)c1ccc(NC(=O)Cn2ncc3ccccc32)cc1,inactive,–
Cc1ccc(Nc2nc(CSc3nnc(-c4cccnc4)n3-c3ccccc3F)cs2)cc1,"inconclusive: 39.8 µM [inhibitor, single point]",–
COc1cc(OC)c(/C=N/NC(N)=S)cc1Br,"inconclusive: 79.4 µM [inhibitor, single point]",–
COc1ccc(C(=O)Cc2ccc(F)cc2)c(OC)c1,inactive,–
CC(=O)NCc1ccc(S(=O)(=O)N/N=C/c2ccc(N(C)C)cc2)cc1,inactive,–
CCCCNC(=S)N(CCO)Cc1cc2cc3c(cc2[nH]c1=O)OCCO3,inactive,–
CCN(CC)S(=O)(=O)c1cccc(-c2n[nH]c(=S)n2C(C)COC)c1 (configuration not stated),active: 10 µM,–
Cc1ccc2cccc(SCC(=O)NCC#N)c2n1,inactive,–
COc1ccc(-c2cc(-c3cc(OC)ccc3O)[nH]n2)cc1,inactive,–
N#Cc1nc(-c2ccco2)oc1NCCc1ccccc1,–,inconclusive: -65.3% [inhibitor]
Brc1ccc(C2C3=C(Nc4ncnn42)c2ccccc2OC3c2ccncc2)cc1 (configuration not stated),"inconclusive: 22.4 µM [inhibitor, single point]",–
COc1ccc(Nc2ccc3cc(S(=O)(=O)N4CCCC4)ccc3n2)cc1OC,active: 14.1 µM,–
Cc1ccc(OCCCN2C(=O)C(=O)c3cc(C)ccc32)cc1,inactive,–
Cc1ccc(CSC2=Nc3ccccc3C3=NC(CCC(=O)NCc4cccs4)C(=O)N23)c(C)c1 (configuration not stated),inactive,–
Fc1ccccc1C1c2cccn2CCN1C(=S)Nc1cccc(Br)c1 (configuration not stated),"inconclusive: 44.7 µM [inhibitor, partial curve]",–
NC(=O)C1CCN(C2=C(Cl)C(=O)c3ccccc3C2=O)CC1,active: 11.2 µM,–
Cc1cc(C)cc(NC(=O)C(c2ccccc2)N2CCN(CC(=O)N3CCCC3)CC2)c1 (configuration not stated),active: 50.1 µM,–
CC(=O)Nc1ccc(S(=O)(=O)NCCC(=O)OCC(=O)c2cccc(Br)c2)cc1,"inconclusive: 63.1 µM [inhibitor, partial curve, poor fit]",–
CCOc1ccc2nc3c(cc2c1)CN(CCCO)C(=NCCOC)S3,active: 31.6 µM,–
O=C(Nc1ccc(Cl)c(Cl)c1)OCCNC(=O)c1ccncc1,inactive,–
C#CCOCCOCCOCCNc1nc(N2CCN(C(=O)[C@H](C(C)C)n3cc(CCO)nn3)CC2)nc(N2CCN(C(=O)[C@H](C(C)C)n3cc(CCO)nn3)CC2)n1,active: 44.7 µM,–
